From the supplement of paper PMC3334620
Over roughly 33,000 sequences, “E-score (-0.5 to 0.5)” has its median near -0.041; the highest 2% begin near 0.37. This is one part of the list.

These sequences were tested against T1, Ecm22 (UniProt Q05958) (assay: PBM E-score (8-mer binding enrichment) (E-score (-0.5 to 0.5)); higher = stronger / more preferred TF binding; most listed sequences are background and not binding sites). Settings: protein concentration: 200 nM; construct: GST-full length.
T1 sequence: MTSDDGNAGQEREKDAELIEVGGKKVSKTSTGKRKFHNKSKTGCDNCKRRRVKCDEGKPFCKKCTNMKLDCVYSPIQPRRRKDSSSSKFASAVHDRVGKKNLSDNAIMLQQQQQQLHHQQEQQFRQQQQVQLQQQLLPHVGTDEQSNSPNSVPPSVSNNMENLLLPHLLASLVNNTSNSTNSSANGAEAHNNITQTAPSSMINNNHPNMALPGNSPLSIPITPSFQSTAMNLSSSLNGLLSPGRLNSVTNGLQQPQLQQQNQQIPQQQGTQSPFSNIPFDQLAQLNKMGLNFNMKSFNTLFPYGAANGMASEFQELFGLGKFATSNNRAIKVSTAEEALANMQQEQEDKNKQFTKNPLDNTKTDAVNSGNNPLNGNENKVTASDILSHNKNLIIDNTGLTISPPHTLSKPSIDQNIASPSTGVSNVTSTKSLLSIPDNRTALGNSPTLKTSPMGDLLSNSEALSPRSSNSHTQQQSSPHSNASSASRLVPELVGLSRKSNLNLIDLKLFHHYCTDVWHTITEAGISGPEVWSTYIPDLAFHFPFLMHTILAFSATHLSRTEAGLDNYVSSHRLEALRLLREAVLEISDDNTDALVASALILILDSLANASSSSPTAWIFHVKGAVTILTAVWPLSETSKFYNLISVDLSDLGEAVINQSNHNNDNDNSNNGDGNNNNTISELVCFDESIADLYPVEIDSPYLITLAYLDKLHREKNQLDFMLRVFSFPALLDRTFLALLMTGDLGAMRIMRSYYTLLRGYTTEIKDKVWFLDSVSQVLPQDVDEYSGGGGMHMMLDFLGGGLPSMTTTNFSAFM
Procedure, shortened: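 PURExpress in vitro transcription/translation supplied GST-tagged yeast transcription factors, either full-length or DNA-binding domain. Applied at about 100-200 nM to universal all-10-mer Agilent arrays double-stranded by primer extension, the bound protein was detected with fluorescent anti-GST. E-scores, modified Wilcoxon-Mann-Whitney statistics, were given by the Universal PBM Analysis Suite to ungapped eight-base words pooled with their reverse complements after masliner normalisation.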

Sequence | PBM E-score
GGAATCCA | -0.207
GGTAACGA | 0.317
ACGTATGA | 0.17
GATTTTCA | 0.0553
AGGGGTAG | -0.0801
AGACAGTA | -0.005
GAAAGCTA | -0.13
AACGTCTG | 0.111
AATATCAT | -0.0211
ACTCAACT | 0.0268
TCCACAAA | -0.133
AATCCTAA | -0.0278
ACCCCTCC | -0.143
AAGCCACT | -0.0688
CTAGCAAA | -0.155
AAGGAGAT | -0.103
ACGAGACT | 0.348
ACCCTACA | -0.0482
CATTCGAC | 0.0337
CCGCAGGC | 0.00157
AATTGGGC | -0.163
CCTAGTGC | -0.153
AAGCAGAA | -0.0277
GGCATGAA | 0.0607
AGAACGCC | -0.083

Sequence | PBM E-score
AATGTAAT | 0.115
CCGCGTCC | -0.00121
GATTAACC | 0.0103
AATGCAAA | 0.0122
GGACGTCA | -0.176
GGCATCTA | -0.0106
ATTCTTAG | -0.159
ACAAACTA | -0.025
ACACCCTG | -0.25
AATTCTCG | 0.319
CCCCCGTC | -0.206
GATCTGGA | -0.179
AGCTCGAT | 0.0946
GAAGCTAA | -0.115
GCTACTCC | -0.0977
CTGTAAAA | -0.0594
ACAGTATA | 0.165
CGGCGAAG | 0.109
GTATTGAA | 0.083
AGTTCTCA | -0.137
TATACCAA | 0.125
AAAAAATA | 0.042
TCTGGCAA | -0.17
GCTATCAA | -0.00823
AGGTTATG | -0.0657

Sequence | PBM E-score
GTCTACCA | -0.215
TGTCTCAA | -0.202
AACAAATC | 0.115
CGCGCGTA | 0.198
CACGCCGA | -0.194
ATGGGTGA | -0.2
CCGACACG | 0.00977
CTCTCTAC | -0.0212
CGGTCGCA | 0.075
GGGCACCA | -0.194
GTTCCACA | 0.13
ACTATTAT | 0.0484
GGAGCCAC | -0.0846
CCGCTGCG | 0.061
ACTGGTTC | -0.0328
ATCGAGCA | 0.0117
ATGGTCTC | -0.128
CCAACCAG | -0.0857
ATACGTAA | 0.278
CGCAGGCA | -0.107
CAAATGGG | -0.259
CGTCACGA | 0.183
CTCTCCCC | -0.293
GCTTTTCA | -0.00964
CGGCTACA | -0.00011

Sequence | PBM E-score
AGGCACTC | -0.0768
AATAGATA | -0.0505
CTCGCGAG | 0.257
GTCACGTA | 0.169
AATGTTGT | 0.0444
CGGTCCCA | 0.16
CCGGCGAA | 0.108
AATCCGGG | 0.0101
AGTAAGTA | -0.0353
ACCCTGTC | 0.0446
CGACACAA | 0.0541
GCTGCGAA | 0.0942
ACACAGCC | -0.118
GGTTCTTA | -0.133
AGATCACT | 0.0131
GGCCGGGA | -0.0139
CAGATAGC | -0.207
TACGTCTA | 0.0439
AGGTCGTC | 0.106
AAGTACTT | 0.0668
AATCACAT | -0.211
GCCTCGGA | 0.175
GACTCTCA | -0.135
ACACACAT | 0.0907
CAGTTGAG | -0.187

Sequence | PBM E-score
ATACTCAG | 0.0352
AGAGACCT | -0.208
CCATGATA | 0.0128
ACATAAGC | -0.0794
GTGCACCA | -0.222
CATCTAGA | 0.0762
TGTTAACA | -0.209
ACTTTTAG | -0.128
TCCCTCAA | -0.209
GCTAGGAC | -0.337
GATTCGGA | 0.171
ACGTGTCG | 0.0998
CATTGGCC | -0.275
ATGGTCGC | 0.174
CCTACCCA | -0.107
GGATATAA | -0.00476
CGTCCGGC | -0.0232
CCGGTTCA | -0.0366
AAACCGGT | -0.102
GAGGTCAA | -0.199
GCGGTCCA | -0.17
AGCGTAGG | -0.237
ATCCAACC | -0.0702
GAAGAGGC | -0.0544
GCTGAGAC | -0.259

Sequence | PBM E-score
GCTAATGA | -0.15
AGGCCTAT | -0.11
CGAGCTAA | 0.166
GATGCAAA | 0.00056
GATGCCGA | 0.0861
GGCGTGAC | -0.215
AACATCCT | -0.188
GCTGGAGA | -0.0748
GCCGGGTA | -0.0886
AGACGGCT | -0.237
GTATAACA | 0.23
ACACTTGC | -0.0727
CTTGATCC | -0.133
AAATGGTA | 0.0511
AAAATGCC | -0.0142
CCTTAGAA | -0.284
GTTCACAA | 0.135
ACTGATAC | 0.125
CGGAAGGA | -0.0981
GCTCGCCC | -0.0118
AAATCTGC | -0.141
ATTGACAC | -0.165
ATGGTTCA | 0.0295
CTAGCATA | -0.147
GATAACTA | -0.0547

Sequence | PBM E-score
AAGGAGTC | -0.179
CTGAGCGC | -0.0118
AACCCGTA | 0.255
GAGGGTCA | -0.124
GTACATGA | 0.175
TCTAGTCA | -0.00339
CTGGCATA | -0.118
CAACGAGG | 0.343
CATAAGCC | -0.213
CACCACGC | -0.182
GCTCTTAC | 0.0699
CCGCGGTA | 0.114
CAACGAGA | 0.378
TGCTCAAA | -0.115
CGGGGCCC | 0.0276
AATTGTCA | -0.00223
CAATATTG | 0.00456
AGATTCAA | -0.147
AACATGCT | -0.0554
GTAACGAA | 0.306
ACCGATTG | 0.115
TAGACAGA | -0.0668
